Results published in PMC12040169 (PLOS Biology, 2025).
The other results are listed elsewhere or left out.

Test system: T1, C. trachomatis L2/434/Bu expressing GFP (CTL2-GFP)
T1 construct: L2/434/Bu GFP intracellular growth in HeLa cells
Design: species or system HeLa; C. trachomatis total inclusion area by high-content imaging, normalised to DMSO
Details: total inclusion area; 28.5 h, 10 µM; inhibitor
Outline: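 After bulk GFP and resorufin fluorescence reads, cells were fixed, stained with Hoechst and imaged by high-content microscopy. Inclusion area and number (GFP) stood in for chlamydial growth, nuclei count (Hoechst) for host cell viability. MICs were derived as for the bulk readout.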

Row | SMILES | % of control remaining
1 | COc1ccccc1C(=O)NC1CN2CCC1CC2 (stereo not shown) [CBK018475C] | 41.3873
2 | O=C(CCCOc1ccccc1)N1CCN(c2cccc(Cl)c2)CC1 [CBK304354] | 61.6613
3 | COc1cc2c(cc1OC)CN(Cc1cc(=O)[nH]c(=O)[nH]1)CC2 [CBK126393] | 89.0987
4 | CCOc1ccc(S(=O)(=O)N2CCSC2c2ccc(OC)c([N+](=O)[O-])c2)cc1 (stereo not shown) [CBK263293] | 74.7916
5 | O=C1CC(NCc2ccccc2)C(=O)N1c1ccc(N2C(=O)CC(NCc3ccccc3)C2=O)cc1 (stereo not shown) [CBK263963] | 121.3
6 | OCc1ccc(OCCCOc2cccc3cccnc23)cc1 [CBK269674] | 76.714
7 | O=C(CCn1cnc2ccccc2c1=O)Nc1cccc(C(F)(F)F)c1 [CBK267687] | 103.004
8 | Oc1c(C(c2ccccc2)N2CCc3ccccc3C2)sc2ncnn12 (stereo not shown) [CBK287612] | 88.8734
9 | CCCn1cc(CN2C3CCC2CC(O)(c2ccccc2F)C3)cn1 (stereo not shown) [CBK282664] | 140.997
10 | O=c1[nH]cccc1-c1noc(-c2cnccn2)n1 [CBK288538] | 92.1857
11 | COc1ccc(C(NC(=O)C2CCN(Cc3ccc(OC)c(OC)c3)CC2)c2ccccc2C)cn1 (stereo not shown) [CBK081452T] | 108.176
12 | CC(C)(C)OC(=O)N1CCC(NCCc2ccccn2)C1 (stereo not shown) [CBK304839] | 82.0902
13 | COCCOc1ncccc1OCc1ccccc1 [CBK001456] | 81.4549
14 | O=C(COc1ccc(Cl)cc1Cl)OCCNC1=NS(=O)(=O)c2ccccc21 [CBK264905] | 87.9289
15 | CC(C)CNc1nc(-c2cccc(O)c2)cnc1N [CBK063862] | 110.418
16 | O=C1CCCN1CCCNc1nccnc1-c1ccncc1 [CBK036832] | 112.136
17 | O=C(Nc1ccc(Cn2cncn2)cc1)C1CC2C=CC1C21CC1 (stereo not shown) [CBK281399] | 122.377
18 | CCOC(=O)c1[nH]c2ccccc2c1NS(=O)(=O)Cc1ccccc1[N+](=O)[O-] [CBK047426] | 81.9091
19 | C/C(CC(=O)Nc1ccc(C)cc1)=N\NC(=O)c1cccc(O)c1 [CBK262618] | 93.329
20 | COc1ccc(/C=C(\C#N)c2nc3ccccc3n2Cc2c(C)ccc3ccccc23)cc1 [CBK262960] | 66.1596

Row | SMILES | % of control remaining
21 | O=C(NCc1ccccc1)[C@H]1CN2CCC1C[C@@H]2Cn1cc(-c2ccc(F)cc2)nn1 (stereo partly shown) [CBK288736] | 89.8939
22 | O=C(CSc1ccccn1)Nc1ccc(CN2CCOCC2)cc1 [CBK306072] | 68.466
23 | CC(=O)c1ccc(C)cc1OC(=O)C1CCCN(S(C)(=O)=O)C1 (stereo not shown) [CBK306140] | 85.4258
24 | O=S(=O)(c1ccc(Br)cc1F)N1CCCCC1CO (stereo not shown) [CBK051302] | 50.844
25 | CC(Oc1ccc(Br)cc1)C(=O)Nc1nc2c(s1)CCC2 (stereo not shown) [CBK296723] | 57.1885
26 | CCOC(=O)c1cnn(C2CCCN(c3cccc(C#N)n3)C2)c1 (stereo not shown) [CBK306430] | 49.1866
27 | COC1C(O)C(CO)OC1n1cnc2cnc(N)nc21 (stereo not shown) [CBK201290] | 105.865
28 | CCOc1ccc(CC(=O)NN2CCOCC2)cc1OCC [CBK268150] | 101.772
29 | CCc1ccc(C(=O)Nc2ccc(NC(C)=O)cc2C(F)(F)F)cc1 [CBK295202] | 97.1163
30 | Cc1nsc(NCc2ccccc2CN2CCCC2CO)c1C#N (stereo not shown) [CBK304124] | 53.2525
31 | O=c1[nH]nc(SCc2ccccc2Cl)c(=S)[nH]1 [CBK027795] | 30.9928
32 | CC(CO)(CO)NCc1ccc(-c2ccccc2)cc1 [CBK268325C] | 96.884
33 | CN(C)CCNC(=O)CSc1ccccc1 [CBK268426] | 83.2702
34 | CCCCN(C=O)c1c(CC)nc2ccc(C(=O)N3CCN(C)CC3)cn12 [CBK145707] | 105.049
35 | COCCCNCCn1cnc2c(N)ncnc21 [CBK277059] | 93.6416
36 | Cc1cc(C)nc(Nc2n[nH]c(-c3cccnc3)n2)n1 [CBK267120] | 100.716
37 | O=C(CC(CN1CCN(c2ccccn2)CC1)C(=O)O)NC1CCCCC1 (stereo not shown) [CBK286812] | 118.923
38 | O=C(O)c1ccc(Br)c(S(=O)(=O)NCc2ccccc2)c1 [CBK263202] | 106.896
39 | Cc1cc2c(cc3c(=O)n(CC(=O)N4CCCCC4)nc(C)n32)s1 [CBK284063] | 84.3755
40 | O=[N+]([O-])c1ccc(Cc2cc[n+](-c3nc4ccccc4nc3[N-]S(=O)(=O)c3ccc([N+](=O)[O-])cc3)cc2)cc1 [CBK301201] | 90.9145
